# Measurements taken from the BET-seq Pho4 binding data (Le et al. 2018).
# The other results are listed elsewhere or left out. Values were computed here from the reads of four pooled replicates and scatter widely.
# Target: T1, Pho4 (S. cerevisiae) (UniProt P07270)
# T1 sequence: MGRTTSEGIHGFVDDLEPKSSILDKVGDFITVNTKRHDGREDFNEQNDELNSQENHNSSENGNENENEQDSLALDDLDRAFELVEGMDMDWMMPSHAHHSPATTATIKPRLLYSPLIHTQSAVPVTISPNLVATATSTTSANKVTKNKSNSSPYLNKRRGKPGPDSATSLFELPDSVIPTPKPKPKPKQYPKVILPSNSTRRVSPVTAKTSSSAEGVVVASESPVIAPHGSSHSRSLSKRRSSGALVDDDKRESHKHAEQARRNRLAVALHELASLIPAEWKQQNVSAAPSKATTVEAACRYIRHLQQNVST
# Assay: relative binding free energy (BET-seq); higher = weaker binding
# Conditions: reference: library average
row,Sequence,relative binding free energy [kcal/mol]
1,AGTGTCACGTGTTGTT,0.09
2,GGTGGCACGTGGGTCC,-0.13
3,CTGGGCACGTGCTGGG,-0.07
4,CAGGGCACGTGATTTA,-0.04
5,TACGACACGTGGGTGA,-0.03
6,TGGACCACGTGGGTTG,-0.21
7,GGGTTCACGTGGGGTA,0.14
8,AGTGACACGTGTGAAA,0.18
9,TCTGTCACGTGGTAAG,0
10,AAAGGCACGTGTTGAA,0.09
11,TATCGCACGTGTTAGT,0.02
12,TTATGCACGTGACTGT,0.07
13,ACTTGCACGTGTGTGT,-0.1
14,CATAGCACGTGATTGT,0.06
15,GGTGACACGTGTGGTC,0.21
16,GGTGTCACGTGATACT,0.22
17,TAATTCACGTGCTGTA,0.28
18,GGAATCACGTGCTGTA,0.26
19,TATATCACGTGGCATA,0.16
20,AGGGTCACGTGCAAGT,0.04
21,CGTAGCACGTGTTGAA,0.04
22,ATGGGCACGTGGACCT,0.09
23,TTAGACACGTGTCGTG,0.04

row,Sequence,relative binding free energy [kcal/mol]
1,TGTCGCACGTGATGTG,0.05
2,AAGTGCACGTGGGCCG,-0.24
3,TGCAGCACGTGTTGTA,-0.11
4,GTGGTCACGTGGAGGA,0.13
5,TACGGCACGTGAGGTG,0.05
6,GCTGGCACGTGTTTGC,0.13
7,AGTGACACGTGTTAAG,0
8,GATGACACGTGTTCGG,0.16
9,AGGTTCACGTGTATAT,0.27
10,TTTGACACGTGTTTTG,0.06
11,TACTTCACGTGCTGGT,0.19
12,GCGTGCACGTGATAGG,0.04
13,CCTGACACGTGGGGGT,-0.1
14,TACTTCACGTGTTGAT,0.24
15,TGTGGCACGTGGTATT,-0.1
16,GTAAGCACGTGGGTTT,-0.13
17,TTTGTCACGTGCTGTA,0.01
18,GGTGGCACGTGCAATT,0.05
19,TCAGGCACGTGTATAT,-0.03
20,TGTGACACGTGCGCGG,-0.31
21,TGGAACACGTGGATGT,0.05
22,GGTCTCACGTGGGGGC,0.21
23,GGGAACACGTGTTTTG,0.03

row,Sequence,relative binding free energy [kcal/mol]
1,GATCGCACGTGTGAGT,0.07
2,GGTCTCACGTGAGTAG,0.43
3,TCTTACACGTGGGTGA,-0.1
4,TTGGTCACGTGGTTCG,0.06
5,GTAAGCACGTGGTTCT,0.01
6,TGCTCCACGTGTAGGG,-0.04
7,GTAGGCACGTGGCGTT,-0.16
8,GGTGGCACGTGGATGT,-0.04
9,AAGCTCACGTGTGTGG,0.21
10,GTTGCCACGTGTTGTC,0.03
11,GGCTTCACGTGACTTG,0.53
12,GTTAACACGTGTTGGG,0.08
13,TCATGCACGTGAGTTA,0.15
14,ATTGTCACGTGAAGTT,0.19
15,TGGAACACGTGTGTCG,0.04
16,ATTTACACGTGTGATG,0.29
17,ATTCGCACGTGTGGGT,-0.04
18,GTGTCCACGTGTCGTG,0.04
19,GTAAGCACGTGGGGCT,-0.15
20,CGAGTCACGTGGAGGG,-0.09
21,GATTTCACGTGAGAGT,0.36
22,TAAGTCACGTGGTGCG,-0.09
23,GAGGCCACGTGTTGTT,0.11

row,Sequence,relative binding free energy [kcal/mol]
1,AGTCGCACGTGATGTA,0.08
2,GCTGTCACGTGGGTCA,0.03
3,CGGGCCACGTGAGGCG,0.13
4,TTTATCACGTGCGAGA,0.23
5,GGTGGCACGTGCTGGA,-0.11
6,TATGGCACGTGGGGAG,-0.17
7,GGTTGCACGTGGAAGG,0.2
8,GGTTTCACGTGGGAAT,0.31
9,GAGGTCACGTGGACTG,0.07
10,TGCGTCACGTGGGACT,0
11,GTGGGCACGTGTCTCG,-0.04
12,CTTTGCACGTGTGGGC,0.19
13,AGGTACACGTGTTAGG,0.1
14,GGTGTCACGTGCATAT,0.18
15,GAAGTCACGTGATTTG,0.39
16,TTTTGCACGTGAGAGT,0.21
17,GCGGTCACGTGGTCTT,0.1
18,GAGGGCACGTGTAGGT,-0.05
19,ATTTACACGTGTTTGT,-0.03
20,AAGTTCACGTGATGGA,0.3
21,TGGGGCACGTGTGTGT,-0.11
22,GTGATCACGTGGGGAG,0.04
23,GGGAGCACGTGGTGTA,-0.09

row,Sequence,relative binding free energy [kcal/mol]
1,TGGAACACGTGTTGTA,0.03
2,AGTGCCACGTGTTTGA,-0.14
3,ATTAGCACGTGATTGC,0.09
4,TTTTGCACGTGGCGGT,-0.07
5,TATTACACGTGACTTT,0.34
6,AGGGTCACGTGACCGG,0.1
7,GAGTACACGTGGAATT,0.41
8,AGTTACACGTGAATTA,0.51
9,GGGGGCACGTGCATGG,-0.2
10,GTCATCACGTGCGGTG,0.19
11,TGGCTCACGTGTCTGG,0.15
12,TTGGGCACGTGATGAA,-0.03
13,ATCTGCACGTGGATGG,0.17
14,GTGTGCACGTGCATGC,-0.09
15,TAAGTCACGTGGAGAG,0.24
16,ATTATCACGTGGGCAT,-0.12
17,GCCAGCACGTGTGGGG,0
18,GTTTGCACGTGGGAAC,0.01
19,AGAGACACGTGAAGGG,0.26
20,ATTGACACGTGAGTCG,0.37
21,TTTGTCACGTGGTTAG,0.16
22,TATTTCACGTGATTGG,0.46
23,TTGTACACGTGCTGAG,0.02
